Measurements published in the supplement of paper PMC8728848.
The other results are listed elsewhere or left out.

Experiments:
Experiment in all cases: glycan array binding signal (z-score within array); higher = stronger binding
Conditions in all cases: glycan notation: IUPAC condensed, linker removed
[1] = target: Neu5Ac(a2-6)Gal(b1-4)GlcNAc(b1-2)Man(a1-3)[Neu5Ac(a2-6)Gal(b1-4)GlcNAc(b1-2)Man(a1-6)]Man(b1-4)GlcNAc(b1-4)[Fuc(a1-6)]GlcNAc
In short: (§1)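 From the Consortium for Functional Glycomics database, 3228 arrays were curated, keeping only those whose protein sequence was available. Binding is given as a within-array Z-score averaged across arrays sharing a protein sequence and across linkers. Negative Z-scores can be read as non-binding.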

[2] = target: Neu5Ac(a2-6)Gal(b1-4)GlcNAc(b1-2)Man(a1-6)Man(b1-4)GlcNAc(b1-4)GlcNAc
In short: as §1

[3] = target: Neu5Ac(a2-6)Gal(b1-4)GlcNAc(b1-2)Man(a1-6)[Gal(b1-4)GlcNAc(b1-2)Man(a1-3)]Man(b1-4)GlcNAc(b1-4)GlcNAc
In short: as §1

[4] = target: Neu5Ac(a2-6)Gal(b1-4)GlcNAc(b1-2)Man(a1-6)[GlcNAc(b1-2)Man(a1-3)]Man(b1-4)GlcNAc(b1-4)GlcNAc
In short: as §1

[5] = target: Neu5Ac(a2-6)Gal(b1-4)GlcNAc(b1-2)Man(a1-6)[Man(a1-3)]Man(b1-4)GlcNAc(b1-4)GlcNAc
In short: as §1

[6] = target: Neu5Ac(a2-6)Gal(b1-4)GlcNAc(b1-2)[Neu5Ac(a2-6)Gal(b1-4)GlcNAc(b1-4)]Man(a1-3)[GlcNAc(b1-4)][Neu5Ac(a2-6)Gal(b1-4)GlcNAc(b1-2)[Neu5Ac(a2-6)Gal(b1-4)GlcNAc(b1-6)]Man(a1-6)]Man(b1-4)GlcNAc(b1-4)GlcNAc
In short: as §1

[7] = target: Neu5Ac(a2-6)Gal(b1-4)GlcNAc(b1-2)[Neu5Ac(a2-6)Gal(b1-4)GlcNAc(b1-4)]Man(a1-3)[GlcNAc(b1-4)][Neu5Ac(a2-6)Gal(b1-4)GlcNAc(b1-4)Man(a1-6)]Man(b1-4)GlcNAc(b1-4)GlcNAc
In short: as §1

[8] = target: Neu5Ac(a2-6)Gal(b1-4)GlcNAc(b1-2)[Neu5Ac(a2-6)Gal(b1-4)GlcNAc(b1-6)]Man(a1-6)[Neu5Ac(a2-6)Gal(b1-4)GlcNAc(b1-2)Man(a1-3)][GlcNAc(b1-4)]Man(b1-4)GlcNAc(b1-4)GlcNAc
In short: as §1

[9] = target: Neu5Ac(a2-6)Gal(b1-4)GlcNAc(b1-3)Gal(b1-3)GlcNAc
In short: as §1

[10] = target: Neu5Ac(a2-6)Gal(b1-4)GlcNAc(b1-3)Gal(b1-4)GlcNAc
In short: as §1

[11] = target: Neu5Ac(a2-6)Gal(b1-4)GlcNAc(b1-3)Gal(b1-4)GlcNAc(b1-2)Man(a1-3)[Neu5Ac(a2-6)Gal(b1-4)GlcNAc(b1-3)Gal(b1-4)GlcNAc(b1-2)Man(a1-6)]GalNAc
In short: as §1

[12] = target: Neu5Ac(a2-6)Gal(b1-4)GlcNAc(b1-3)Gal(b1-4)GlcNAc(b1-3)Gal(b1-4)GlcNAc
In short: as §1

[13] = target: Neu5Ac(a2-6)Gal(b1-4)GlcNAc(b1-3)Gal(b1-4)GlcNAc(b1-3)Gal(b1-4)GlcNAc(b1-2)Man(a1-3)[Neu5Ac(a2-6)Gal(b1-4)GlcNAc(b1-3)Gal(b1-4)GlcNAc(b1-3)Gal(b1-4)GlcNAc(b1-2)Man(a1-6)]GalNAc
In short: as §1

[14] = target: Neu5Ac(a2-6)Gal(b1-4)GlcNAc(b1-3)Gal(b1-4)GlcNAc(b1-3)GalNAc
In short: as §1

[15] = target: Neu5Ac(a2-6)Gal(b1-4)GlcNAc(b1-3)Gal(b1-4)GlcNAc(b1-3)[Neu5Ac(a2-6)Gal(b1-4)GlcNAc(b1-3)Gal(b1-4)GlcNAc(b1-6)]GalNAc
In short: as §1

[16] = target: Neu5Ac(a2-6)Gal(b1-4)GlcNAc(b1-3)Gal(b1-4)GlcNAc(b1-6)[Gal(b1-3)]GalNAc
In short: as §1

[17] = target: Neu5Ac(a2-6)Gal(b1-4)GlcNAc(b1-3)Gal(b1-4)[Fuc(a1-3)]GlcNAc(b1-3)Gal(b1-4)[Fuc(a1-3)]GlcNAc
In short: as §1

[18] = target: Neu5Ac(a2-6)Gal(b1-4)GlcNAc(b1-3)GalNAc
In short: as §1

[19] = target: Neu5Ac(a2-6)Gal(b1-4)GlcNAc(b1-3)[Neu5Ac(a2-6)Gal(b1-4)GlcNAc(b1-6)]GalNAc
In short: as §1

[20] = target: Neu5Ac(a2-6)Gal(b1-4)GlcNAc(b1-6)GalNAc
In short: as §1

[21] = target: Neu5Ac(a2-6)Gal(b1-4)GlcNAc(b1-6)[Gal(b1-3)GlcNAc(b1-3)]Gal(b1-4)Glc
In short: as §1

[22] = target: Neu5Ac(a2-6)Gal(b1-4)GlcNAc(b1-6)[Gal(b1-3)]GalNAc
In short: as §1

[23] = target: Neu5Ac(a2-6)Gal(b1-4)GlcNAc6S
In short: as §1

Neu5Ac(a2-6)GalNAc = target: Neu5Ac(a2-6)GalNAc
In short: as §1

[24] = target: Neu5Ac(a2-6)GalNAc(b1-4)GlcNAc
In short: as §1

[25] = target: Neu5Ac(a2-6)GalNAc(b1-4)GlcNAc6S
In short: as §1

[26] = target: Neu5Ac(a2-6)GlcNAc(b1-4)GlcNAc
In short: as §1

[27] = target: Neu5Ac(a2-6)GlcNAc(b1-4)GlcNAc(b1-4)GlcNAc
In short: as §1

Neu5Ac(a2-8)Neu5Ac = target: Neu5Ac(a2-8)Neu5Ac
In short: as §1

[28] = target: Neu5Ac(a2-8)Neu5Ac(a2-3)Gal(b1-3)GalNAc(b1-4)[Neu5Ac(a2-3)]Gal(b1-4)Glc
In short: as §1

[29] = target: Neu5Ac(a2-8)Neu5Ac(a2-3)Gal(b1-3)GalNAc(b1-4)[Neu5Ac(a2-8)Neu5Ac(a2-3)]Gal(b1-4)Glc
In short: as §1

[30] = target: Neu5Ac(a2-8)Neu5Ac(a2-3)Gal(b1-4)Glc
In short: as §1

[31] = target: Neu5Ac(a2-8)Neu5Ac(a2-3)Gal(b1-4)GlcNAc
In short: as §1

[32] = target: Neu5Ac(a2-8)Neu5Ac(a2-3)[Gal(b1-3)GalNAc(b1-4)]Gal(b1-4)Glc
In short: as §1

[33] = target: Neu5Ac(a2-8)Neu5Ac(a2-3)[GalNAc(b1-4)]Gal(b1-4)Glc
In short: as §1

[34] = target: Neu5Ac(a2-8)Neu5Ac(a2-8)Neu5Ac
In short: as §1

[35] = target: Neu5Ac(a2-8)Neu5Ac(a2-8)Neu5Ac(a2-3)Gal(b1-4)Glc
In short: as §1

[36] = target: Neu5Ac(a2-8)Neu5Ac(a2-8)Neu5Ac(a2-3)[Gal(b1-3)GalNAc(b1-4)]Gal(b1-4)Glc
In short: as §1

[37] = target: Neu5Ac(a2-8)Neu5Ac(a2-8)Neu5Ac(a2-3)[GalNAc(b1-4)]Gal(b1-4)Glc
In short: as §1

[38] = target: Neu5Ac(a2-8)Neu5Ac(a2-8)Neu5Ac(a2-8)Neu5Ac(a2-3)[GalNAc(b1-4)]Gal(b1-4)Glc
In short: as §1

[39] = target: Neu5Ac(a2-8)Neu5Gc(a2-3)Gal(b1-4)GlcNAc
In short: as §1

[40] = target: Neu5Ac(b2-6)Gal(b1-4)GlcNAc
In short: as §1

Neu5Ac(b2-6)GalNAc = target: Neu5Ac(b2-6)GalNAc
In short: as §1

[41] = target: Neu5Ac9Ac(a2-3)Gal(b1-3)GlcNAc
In short: as §1

[42] = target: Neu5Ac9Ac(a2-3)Gal(b1-4)GlcNAc
In short: as §1

[43] = target: Neu5Ac9Ac(a2-6)Gal(b1-4)GlcNAc
In short: as §1

[44] = target: Neu5Gc(a2-3)Gal(b1-3)GlcNAc
In short: as §1

[45] = target: Neu5Gc(a2-3)Gal(b1-3)[Fuc(a1-4)]GlcNAc
In short: as §1

Neu5Gc(a2-3)Gal(b1-4)Glc = target: Neu5Gc(a2-3)Gal(b1-4)Glc
In short: as §1

[46] = target: Neu5Gc(a2-3)Gal(b1-4)GlcNAc
In short: as §1

[47] = target: Neu5Gc(a2-3)Gal(b1-4)GlcNAc(b1-3)Gal(b1-4)GlcNAc(b1-2)Man(a1-3)[Neu5Gc(a2-3)Gal(b1-4)GlcNAc(b1-3)Gal(b1-4)GlcNAc(b1-2)Man(a1-6)]Man(b1-4)GlcNAc(b1-4)GlcNAc
In short: as §1

[48] = target: Neu5Gc(a2-3)Gal(b1-4)[Fuc(a1-3)]GlcNAc
In short: as §1

[49] = target: Neu5Gc(a2-6)Gal(b1-4)GlcNAc
In short: as §1

Neu5Gc(a2-6)GalNAc = target: Neu5Gc(a2-6)GalNAc
In short: as §1

[50] = target: Neu5Gc(a2-8)Neu5Ac(a2-3)Gal(b1-4)GlcNAc
In short: as §1

[51] = target: Neu5Gc(a2-8)Neu5Gc(a2-3)Gal(b1-4)GlcNAc
In short: as §1

[52] = target: Neu5Gc(a2-8)Neu5Gc(a2-3)Gal(b1-4)GlcNAc(b1-3)Gal(b1-4)GlcNAc
In short: as §1

[53] = target: Neu5Gc(a2-8)Neu5Gc(a2-6)Gal(b1-4)GlcNAc
In short: as §1

[54] = target: Neu5Gc(b2-6)Gal(b1-4)GlcNAc
In short: as §1

B1: Siglec-7-SA-PE-180 (Homo sapiens), Q9Y286 (protein)
chain: MLLLLLLPLLWGRERVEGQKSNRKDYSLTMQSSVTVQEGMCVHVRCSFSYPVDSQTDSDPVHGYWFRAGNDISWKAPVATNNPAWAVQEETRDRFHLLGDPQTKNCTLSIRDARMSDAGRYFFRMEKGNIKWNYKYDQLSVNVTALTHRPNILIPGTLESGCFQNLTCSVPWACEQGTPPMISWMGTSVSPLHPSTTRSSVLTLIPQPQHHGTSLTCQVTLPGAGVTTNRTIQLNVSYPPQNLTVTVFQGEGTASTALGNSSSLSVLEGQSLRLVCAVDSNPPARLSWTWRSLTLYPSQPSNPLVLELQVHLGDEGEFTCRAQNSLGSQHVSLNLSLQQEYTGKMRPVSGVLLGAVGGAGATALVFLSFCVIFIVVRSCRKKSARPAADVGDIGMKDANTIRGSASQGNLTESWADDNPRHHGLAAHSSGEEREIQYAPLSFHKGEPQDLSGQEATNNEYSEIKIPK
glycan array binding signal (z-score) [1]: -0.154
glycan array binding signal (z-score) [2]: -0.076
glycan array binding signal (z-score) [3]: -0.12
glycan array binding signal (z-score) [4]: -0.334
glycan array binding signal (z-score) [5]: -0.135
glycan array binding signal (z-score) [6]: -0.159
glycan array binding signal (z-score) [7]: 0.514
glycan array binding signal (z-score) [8]: -0.04
glycan array binding signal (z-score) [9]: -0.219
glycan array binding signal (z-score) [10]: 0.369
glycan array binding signal (z-score) [11]: 0.25
glycan array binding signal (z-score) [12]: -0.078
glycan array binding signal (z-score) [13]: 0.262
glycan array binding signal (z-score) [14]: -0.587
glycan array binding signal (z-score) [15]: 0.185
glycan array binding signal (z-score) [16]: 0.148
glycan array binding signal (z-score) [17]: -0.037
glycan array binding signal (z-score) [18]: -0.252
glycan array binding signal (z-score) [19]: -0.278
glycan array binding signal (z-score) [20]: -0.258
glycan array binding signal (z-score) [21]: -0.273
glycan array binding signal (z-score) [22]: 0.216
glycan array binding signal (z-score) [23]: 0.616
glycan array binding signal (z-score) (Neu5Ac(a2-6)GalNAc): -0.249
glycan array binding signal (z-score) [24]: -0.408
glycan array binding signal (z-score) [25]: 0.866
glycan array binding signal (z-score) [26]: 0.062
glycan array binding signal (z-score) [27]: 0.256
glycan array binding signal (z-score) (Neu5Ac(a2-8)Neu5Ac): 2.11
glycan array binding signal (z-score) [28]: 0.073
glycan array binding signal (z-score) [29]: -0.144
glycan array binding signal (z-score) [30]: -0.23
glycan array binding signal (z-score) [31]: -0.281
glycan array binding signal (z-score) [32]: -0.067
glycan array binding signal (z-score) [33]: -0.166
glycan array binding signal (z-score) [34]: -0.114
glycan array binding signal (z-score) [35]: 0.277
glycan array binding signal (z-score) [36]: -0.076
glycan array binding signal (z-score) [37]: -0.3
glycan array binding signal (z-score) [38]: 0.404
glycan array binding signal (z-score) [39]: -0.201
glycan array binding signal (z-score) [40]: -0.215
glycan array binding signal (z-score) (Neu5Ac(b2-6)GalNAc): 0.102
glycan array binding signal (z-score) [41]: -0.351
glycan array binding signal (z-score) [42]: -0.346
glycan array binding signal (z-score) [43]: -0.116
glycan array binding signal (z-score) [44]: -0.155
glycan array binding signal (z-score) [45]: -0.221
glycan array binding signal (z-score) (Neu5Gc(a2-3)Gal(b1-4)Glc): 0.401
glycan array binding signal (z-score) [46]: 0.198
glycan array binding signal (z-score) [47]: 0.589
glycan array binding signal (z-score) [48]: 0.13
glycan array binding signal (z-score) [49]: 0.747
glycan array binding signal (z-score) (Neu5Gc(a2-6)GalNAc): 2.26
glycan array binding signal (z-score) [50]: -0.398
glycan array binding signal (z-score) [51]: -0.256
glycan array binding signal (z-score) [52]: 0.081
glycan array binding signal (z-score) [53]: -0.092
glycan array binding signal (z-score) [54]: -0.05
